B1: LINE1-full (parent)
chain: UACGUAGGUGGUUUUCCCCUGAUAGUGCUAAGGGGGCCUGGAAGUUUGGACUGGGCAGAGCUCAACACAGCGUGGCAAAGUGGCUGUGGCUAGACUGCCUCUCUGGAUUCCUCGUCACUCAGCAGGGCAUCUCUGAGAGAAAUGCC

The source gives no read counts; variants with many changes may rest on few reads.

The data set covers variants of B1. In words: self-cleavage, relative activity (ratio to wild type); higher = more cleavage; in vitro, sequencing; the parent is a self-cleaving ribozyme.
For CACGUAGGUGGUUUUCCCCUGAUAGUGCUAAGGGGGCCUGGAAGUUUGGACUGGGCAGAGCUCAACACAGCGUGGCAAAGUGGCUGUGGCUAGACUGCCUCACUGGAUUCCUCGUCACACAGCAGGGCUUCUCUGAGAGAAAUGCC [U1C U102A U119A A129U], the self-cleavage is 0.98. CACGUAGGUGGUUUUCCCCUGAUAGUGCUAAGGGGGCCUGGAAGUUUGGACUGGGCAGAGCUCAACACAGCGUGGCAAAGUGGCUGUGGCUAGACUGCCUCCCUGGAUUCCUCGUCACUCAGCAGGGCAUCUUUGAGAGAAAUGCC [U1C U102C C133U]: the self-cleavage is 0.84. With CACGUAGGUGGUUUUCCCCUGAUAGUGCUAAGGGGGCCUGGAAGUUCGGACUGGGCAGAGCUCAACACAGCGUGGCAAAGUGGCUGUGGCUAGACUGCCUCUCUGGAUUCCUCGUCACUCAGCAGGGCAUCUCUGAGAGAAGUGCC [U1C U47C A142G], the self-cleavage worked out at 0.96.

With CACGUAGGUGGUUUUCCCCUGAUAGUGCUAAGGGGGCCUGGAAGUUUGGACUGGGCAGAGCUCAACACAGCGUGGCAAAGUGGCUGUGGCCUGACUGCCUCUCUGGAUUCCUCGCCACUCAGCAGGGCAUCUCUGAGAGAAAUGCC [U1C U91C A92U U115C], the self-cleavage was 0. The value for CACGUAGGUGGUUUUCCCCUGAUAGCGCUAAGGGGGCCUGGAAGUUUGGACUGGGCAGAGCUCAACACAGCGUGGCAAAGUGGCUGUGGCUAGACUGCCUCCCUGGAUUCCUCGUCACUCAGCAGGGCAUCUCUGAGAGAAGUGCC [U1C U26C U102C A142G] was 1.47. As for CACGUAGGUGGUUUUCCCCUGAUAGUGCUAAGGGGGCCUGGAAGUCUGGACUGGGCAGAGCUCAACACAGCGUGGCAAAGUGGCUGUGGCUAGACUGCCUCUCUGGAUUCCUCGUCACUCAGCAGGGCAUCUCUGAGGGAAACGCC [U1C U46C A138G U143C], the self-cleavage came to 1.8.

On to CACGUAGGUGGUUUUCCCCUGAUAGUGCUAAGGGGGCCUGGAAGUAUGGACUGGGCAGAGCUCAACACAGCGUGGCAAAGUGGCUGUGGCUAGACUGCCUCUCUGGAUUCCUCGUCACUCAGCAGGGCAUCUCUGAGAGGGAUGCC [U1C U46A A140G A141G], for which the self-cleavage amounted to 0.83. The value for CACGUAGGUGGUUUUCCCCUGAUAGUGCUAAGGGGGCCUGGAAGUUUGGACUGGGCAGAGCUCAACACAGCGUGGCAAAGUGGCUGAGGCUAGACUGCCUCUCUGGAUUCCUCGUCACUCAGCAGGACAUCUCUGAGAGAAAUGCC [U1C U87A G127A] was 0.04. The value for CACGUAGGUGGUUUUCCCCUGAUAGUGCUAAGGGGGCCUGGAAGCUUGGACUGGGCAGAGCUCAACACAGCGUGGCAAAGUGGCUGUGGCUAGACUGCCUCUCUGGAUUCCUCGUCGCUCAGCAGGGCAUCUCCGAGAGAAAUGCC [U1C U45C A117G U134C] was 0.92; that for CACGUAGGUGGUUUUCCCCUGAUAGUGCUAAGGGGGCCUGGAAGUUUGGACAGGGCAGAGCUCAGCACAGCGUGGCAAAGUGGCUGUGGCUAGACUGCCUCUCUGGACUCCUCGUCACUCAGCAGGGCAUCUCUGAGAGAAAUGCC [U1C U52A A65G U108C] was 0; that for CACGUAGGUGGUUUUCCCCUGAUAGUGCUAAGGGGGCCUGGAAGUUUGGACUGGGCAGAGCUCAACACAGCGUGGCAAAGUGGCUGCGGCUAGACUGCCUCUCUGGAUUCCCCGUCACUCAGCAGGGCAUCUCUGAGAGAAAUGCC [U1C U87C U112C] was 0.15. Take CACGUAGGUGGUUUUCCCCUGAUAGUGCUAAGGGGGCCUGGAAGUUAGGACUGGGCAGAGCUCAACGCAGCGUGGCAAAGUGGCUGUGGCUAGACUGCCUCUCUGGAUUCCUCGUCACUCAGCAGGGCAUCUCUGAGAGAAAUGCC [U1C U47A A67G]: the self-cleavage was determined as 0.13.

Consider CACGUAGGUGGUUUUCCCCUGAUAGUGCUAAGGGGGCCUGGAAGUUUGGACUGGGCAGAGCUCAACACAGCGUGGCAAAGUGGCUGUGGCUAGACUGCCCCUCUGGAUUCCUCGUCACUCAGCAGGGCAUCUCUGAGAGGAAUGCC [U1C U100C A140G], for which the self-cleavage amounted to 1.24. With CACGUAGGUGGUUUUCCCCUGAUAGUGCUAAGGGGGCCUGGAAGUUCGGACUGGGCAGAGCUCAACACAGCGUGGCAAAGUGGCUGUGGCCAGACUGCCUCUAUGGAUUCCUCGUCACUCAGCAGGGCAUCUCUGAGAGAAAUGCC [U1C U47C U91C C103A] the figure was 0. For CACGUAGGUGGUUUUCCCCUGAUAGUGCUAAGGGGGCCUGGAAGCUUGGACUGGGCAGAGCUCAACACAGCGUGGCAAAGUGGCUGUGGCUAGACUGCCUCUCUGGAUUCCUCGUCACUCAGCAGGGCGUCUCUGAGAGAAUUGCC [U1C U45C A129G A142U], the self-cleavage stood at 1.15.

With CACGUAGGUGGUUUUCCCCUGAUAGUGCUAAGGGGGCCUGGAAGUUUGGACUGGGCAGAGCUCAACACAGCGUGGCAAAGUGGCUGUGGCUAGACAGCCACUCUGGAUUCCUCGUCACUCAGCAGGGCAUCUCUGAGAGAAAUGCC [U1C U96A U100A], the self-cleavage was 0.09. Regarding CACGUAGGUGGUUUUCCCCUGAUAGUGCUAAGGGGGCCCGGAAGUUUGGACUGGGCAGAGCUCAACACAGCGAGGCAAAGUGGCUGUGGCUAGACUGCCUCUCUGGAUUCCUCGUCACUCAGCAGGGCAUCUCUGAGAGAAACGCC [U1C U39C U73A U143C], the self-cleavage amounted to 0.34. The value for CACGUAGGUGGUUUUCCCCUGAUAGUGCUAAGGGGGCCUGGAAGUUUGGACUGGGCAGAGCUCAACACAGCGUGGCAAAGUGGCUGUGGCUAGACUGCCUCUCUGGACUCCUCGUCACUCAGCAGGGCAUCCCUGAGAGAAAUGCC [U1C U108C U132C] was 1.07; that for CACGUAGGUGGUUUUCCCCUGAUAGUGCUAAGGGGGCCUGGAAGUUUGGACUGGGCAGAGCUCAACACAGCGUGGCAAAGUGGCUGCGGCAAGACUGCCUCUCUGGAUUCCUCGUCACUCAGCAGGGCAUCUCUGAGAGAAAUGCC [U1C U87C U91A] was 0.22.

Consider CACGUAGGUGGUUUUCCCCUGAUAGUGCUAAGGGGGCCUGGAAGUUUGGACUGGGCAGAGCUCAACACAGCGCGGCAAAGUGGCUGUGGCUAGACUGCCUCUCUGGAUUCCUCGUCACACAGCAGGGCAUCUCUGAGAGAAAUGAC [U1C U73C U119A C145A], for which the self-cleavage is 0.98. Turning to CACGUAGGUGGUUUUCCCCUGAUAGUGCUAAGGGGGCCUGGAAGUUUGGACAGGGCAGGGCUCAACACAGCGUGGCAAAGUGGCUGUGGCUAGACUGCCUCUCUGGAUUCCUCGUCACUCAGCAGGGCAUCUCUGAGAGAAAUGCC [U1C U52A A59G], the self-cleavage is 0.2. On to CACGUAGGUGGUUUUCCCCUGAUAGUGCUAAGGGGGCCAGGAAGUUUGGACUGGGCAGAGCUCAACACAGCGUGGCAAAGAGGCUGUGGCUAGACUGCCUCUCUGGAUUCCUCGUCACUCAGCAGGGCAUCUCUGAGAGAAAUGCC [U1C U39A U81A], for which the self-cleavage came to 1.38. Take CACGUAGGUGGUUUUCCCCUGAUAGUGCUAAGGGGGCCUGGAAGUUAGGGCUGGGCGGAGCUCAACACAGCGUGGCAAAGUGGCUGUGGCUAGACUGCCUCUCUGGAUUCCUCGUCACUCAGCAGGGCUUCUCUGAGAGAAAUACC [U1C U47A A50G A57G A129U G144A]: the self-cleavage amounted to 0.42. Turning to CACGUAGGUGGUUUUCCCCUGAUAGUGCUAAGGGGGCCUGGAAGUUUGGACCGGGCAGAGCCCAACACAGCGUGGCAAAGUGGCUGUGGCUAGACUGCCUCUCUGGAUUCCUCGUCACUCAGCAGGGCAUCUCUGAGAGAAAUGCC [U1C U52C U62C], the self-cleavage turned out to be 0.

Consider CACGUAGGUGGUUUUCCCCUGAUAGUGCUAAGGGGGCCUGGAAGCUUGGACUGGGCAGAGCUCAACACAGCGUGGCAAAGUGGCUGUGGCUAGACUGCAUCUCUGGAUUCCUCGUCACUCAGCAGGGCAUCUCUGAGAGAAAUGCC [U1C U45C C99A], for which the self-cleavage is 0.69. For the variant CACGUAGGUGGUUUUCCCCUGAUAGUGCUAAGGGGGCCUGGAAGUUUGGACUGGGCAGAGCUCAACACAGCGAGGCAAAGUGGCUGUGGCUAGACUGCCUCUCUGGAUUCCUCGUCACUCAGCAGGGCAUCUCCGAGGGAAAUGCC [U1C U73A U134C A138G], the self-cleavage was 0. With CACGUAGGUGGUUUUCCCCUGAUAGUGCUAAGGGGGCCUGGAAGUUUGGACUGGGCAGAGCUCAACACAGCGUGGCAAAGUGGCUGUGGCUAGACUGCCACUCUGGGUUCCUCGUCACUCAGCAGGGCAUCUCUGAGAGAAAUGCC [U1C U100A A107G] the figure was 0.9.

In the case of CACGUAGGUGGUUUUCCCCUGAUAGUGCUAAGGGGGCCUGGAAGUUUGGACUGGGCAGAGCUCAACACAGCGCGGCAAAGUGGCUGUGGCUAGACUGCCUCUCUGGAUUCCUCGUCACUCAGCUGGGCAUCUCUGAGAGAAAUGCC [U1C U73C A124U], the self-cleavage came out at 1.31.

On to CACGUAGGUGGUUUUCCCCUGAUAGUGCUAAGGGGGCCUGGAAGUUAGGACUGGGCAGAGCUCAACACAGCGUGGCAAAGUGGCUGUGGCUAGACUGCCUCUCUGGAUUCCUCGCCACUCAGCAGGGCAUCUCUGAGAGAAAUGCC [U1C U47A U115C], for which the self-cleavage is 1.29. CACGUAGGUGGUUUUCCCCUGAUAGUGCUAAGGGGGCCUGGAAGUCUGGACUGGGCAGAGCUCAACACAGCGUGGCAAAGGGGCUGUGGCUAGACUGCCUCUCUGGAUUCCUCGUCACUCAGCAGGGCAUCUCUGAGAGAAAUGCC [U1C U46C U81G]: the self-cleavage was found to be 0.55. On to GACGUAGGUGGUUUUCCCCUGAUAGUGCUAAGGGGGCCUGGAAGUUUGGACUGGGCAGAGCUCAACACAGCGUGGCAAAGUGGCUGUGGCUAGACUGCCUAUCUGGAUUCCUCGUCACUCAGCAGGGCAUCCCUGAGAGAAAUGCC [U1G C101A U132C], for which the self-cleavage was found to be 0.84. As to CACGUAGGUGGUUUUCCCCUGAUAGUGCUAAGGGGGCCCGGAAGUUUGGACUGGGCAGGGCUCAACACAGCGUGGCAAAGUGGCUGUGGCUAGACUGCCUCUCUGGAUUCCUCGUCACCCAGCAGGGCAUCUCUGAGAGAAAUGCC [U1C U39C A59G U119C], the self-cleavage was found to be 0. Turning to CACGUAGGUGGUUUUCCCCUGAUAGUGCUAAGGGGGCCUGGAAGUUCGGACUGGGCAGAGCUCAACACAGCGUGGCAAUGUGGCUGUGGCUAGACUGCCUCUCUGGAUUCCUCGUCACUCAGCAGGGCAUCUCUGAGAGAAAUGCC [U1C U47C A79U], the self-cleavage was determined as 1.47. CACGUAGGUGGUUUUCCCCUGAUAGUGCUAAGGGGGCCUGGAAGUUUGGACUGGGCAGAGCUCAACACAGCGUGGCAAAGUGGCUGUGGCUAGACUGCCUCCCUGGAUUCCUCGUGACUCAGCAGGGCAUCUCUGAGAGAAAUGCC [U1C U102C C116G]: the self-cleavage stood at 0.95.

Turning to CACGUAGGUGGUUUUCCCCUGAUAGUGCUAAGGGGGCCUGGAAGUUUGGACUGGGCAGAGCCCAACACAGCGUGGCAAAGUGGCUGUGGCUAGACUGCCUCUCUGGAUUCCUCGUCACUCAGCAGUGCAUCUCUGAGAGAAAUGCC [U1C U62C G126U], the self-cleavage amounted to 0.03.

As to CACGUAGGUGGUUUUCCCCUGAUAGUGCUAAGGGGGCCUGGAAGUCUAGACUGGGCAGAGCUCAACACAGCGUGGCAAAGUGGCUGUGGCUAGACUGCCCCUCUGGAUUCCUCGUCGCGCAGCAGGGCAUCUCUGAGAGAAAUGCC [U1C U46C G48A U100C A117G U119G], the self-cleavage was found to be 0. For GACGUAGGUGGUUUUCCCCUGAUAGUGCUAAGGGGGCCUGGAAGUUUGGACUGGGCGGAGCUCAACACAGCGUGGCAAAGUGGCUGUGGCUAGACUGCCUCCCUGGAUUCCUCGUCACUCAGCAGGGCAUCUCUGAGAGAAAUGCC [U1G A57G U102C], the self-cleavage amounted to 0.

Take CACGUAGGUGGUUUUCCCCUGAUAGUGCCAAGGGGGCCUGGAAGUUUGGACUGGGCGGAGCUCAACACAGCGUGGCAAAGUGGCUGUGGCCAGACUGCCUCUCUGGAUUCCUCGUCACUCAGCAGGGCAUCUCUGAGAGAAAUGCC [U1C U29C A57G U91C]: the self-cleavage is 0.77. Take CACGUAGGUGGUUUUCCCCUGAUAGUGCCAAGGGGGCCUGGAAGUUUGGACUGGGCAGAGCUCAACACAGCGUGGCAAAGUGGCUGUGGCUAGUCUGCCUCUCUGGAUUCCUCGUCACUCAGCAGGGCAUCUCUGAGGGAAAUGCC [U1C U29C A94U A138G]: the self-cleavage was 0.41.

For the origin of these results see the RNAGym collection of RNA variant scans (doi:10.7554/elife.90254).
